Results taken from publication PMC4850058, “TRIP6 antagonizes the recruitment of A20 and CYLD to TRAF6 to promote the LPA2 receptor-mediated TRAF6 activation” (Cell Discovery, 2016).
These are yes or no findings as the source states them, for the method shown. For some of these results: Binding seen in cells or lysates may run through a third protein. Some results given as binding are weak or reduced against the parent protein; the word gives no strength. For some of these results: Sequences can lack the tags named with a protein.

Sequences of proteins named here, by UniProt entry; tags and fusion partners are left off.
UniProt Q04206: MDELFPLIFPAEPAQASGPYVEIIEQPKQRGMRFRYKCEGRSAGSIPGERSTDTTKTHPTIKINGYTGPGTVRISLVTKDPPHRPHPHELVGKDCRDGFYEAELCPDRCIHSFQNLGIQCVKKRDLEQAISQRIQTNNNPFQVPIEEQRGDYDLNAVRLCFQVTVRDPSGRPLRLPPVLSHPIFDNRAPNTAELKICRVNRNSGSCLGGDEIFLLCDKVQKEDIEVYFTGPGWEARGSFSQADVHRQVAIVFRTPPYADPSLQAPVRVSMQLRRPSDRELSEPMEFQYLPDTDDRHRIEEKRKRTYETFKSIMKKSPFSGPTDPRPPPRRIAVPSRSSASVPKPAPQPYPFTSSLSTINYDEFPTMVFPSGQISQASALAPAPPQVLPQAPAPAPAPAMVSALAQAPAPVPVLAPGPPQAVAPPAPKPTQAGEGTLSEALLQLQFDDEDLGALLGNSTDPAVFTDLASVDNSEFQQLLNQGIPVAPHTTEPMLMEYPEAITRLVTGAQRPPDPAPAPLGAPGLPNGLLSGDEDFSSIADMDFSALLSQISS
UniProt Q04207: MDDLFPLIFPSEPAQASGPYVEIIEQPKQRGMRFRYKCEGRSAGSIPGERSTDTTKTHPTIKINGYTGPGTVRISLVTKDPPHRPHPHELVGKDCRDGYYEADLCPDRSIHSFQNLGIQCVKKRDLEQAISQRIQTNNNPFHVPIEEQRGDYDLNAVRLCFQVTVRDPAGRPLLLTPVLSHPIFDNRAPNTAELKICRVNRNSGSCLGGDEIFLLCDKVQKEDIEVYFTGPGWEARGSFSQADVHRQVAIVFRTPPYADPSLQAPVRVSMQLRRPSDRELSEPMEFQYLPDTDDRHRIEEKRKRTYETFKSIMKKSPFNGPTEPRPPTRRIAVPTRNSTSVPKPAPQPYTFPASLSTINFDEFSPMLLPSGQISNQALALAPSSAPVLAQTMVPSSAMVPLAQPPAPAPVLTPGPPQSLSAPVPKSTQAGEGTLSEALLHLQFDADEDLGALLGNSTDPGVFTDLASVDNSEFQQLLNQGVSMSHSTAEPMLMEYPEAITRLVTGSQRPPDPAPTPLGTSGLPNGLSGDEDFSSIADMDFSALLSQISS

Key:
FLAG-TRIP6 [1] = target: T1, FLAG-TRIP6 (UniProt Q15654); test: co-IP; FLAG-TRIP6 immunoprecipitated from cytosolic and nuclear fractions of HEK293T expressing HA-K63-ubiquitin and EGFP or EGFP-TRAF6; starved 6 h, LPA 1 h; immunoblot for endogenous NF-κB p65
T1 sequence: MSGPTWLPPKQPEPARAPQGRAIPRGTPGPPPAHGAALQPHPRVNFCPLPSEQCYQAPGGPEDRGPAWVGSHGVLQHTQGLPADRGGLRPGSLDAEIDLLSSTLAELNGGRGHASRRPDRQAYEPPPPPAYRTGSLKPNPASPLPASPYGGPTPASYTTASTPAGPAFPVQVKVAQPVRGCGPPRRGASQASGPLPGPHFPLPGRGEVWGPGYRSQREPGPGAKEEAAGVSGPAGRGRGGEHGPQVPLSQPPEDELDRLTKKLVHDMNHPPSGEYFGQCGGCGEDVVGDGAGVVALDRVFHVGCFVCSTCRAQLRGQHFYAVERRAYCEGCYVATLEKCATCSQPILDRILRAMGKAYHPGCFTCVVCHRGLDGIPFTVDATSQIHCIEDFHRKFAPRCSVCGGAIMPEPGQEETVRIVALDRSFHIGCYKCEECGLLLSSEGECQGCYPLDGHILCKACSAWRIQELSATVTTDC

[2] = target: T2, TRIP6 (thyroid hormone receptor-interacting protein 6), endogenous (human (endogenous in SKOV-3, HEK293T, U373-MG)) (UniProt Q15654); test: co-IP; endogenous TRIP6 immunoprecipitated with anti-TRIP6 mouse monoclonal antibody from HEK293T expressing FLAG-TRAF6; LPA time course; immunoblot for endogenous NF-κB p65
T2 sequence: T1 sequence

FLAG-TRIP6 [3] = target: T1, FLAG-TRIP6; test: condition: only with overexpressed ligase-defective EGFP-C70A-TRAF6; co-IP; as a17, with ligase-defective EGFP-C70A-TRAF6 co-expressed
[4] = target: T3, TRIP6, endogenous in mouse embryonic fibroblasts (mouse (endogenous in LPA1/2 DKO MEFs)) (UniProt Q9Z1Y4); test: co-IP; cytosolic endogenous TRIP6 immunoprecipitated with anti-TRIP6 mouse monoclonal antibody from LPA1/2 DKO MEFs expressing LPA2 receptor and scrambled shRNA; starved 6 h, LPA 1 h; immunoblot for NF-κB p65
T3 sequence: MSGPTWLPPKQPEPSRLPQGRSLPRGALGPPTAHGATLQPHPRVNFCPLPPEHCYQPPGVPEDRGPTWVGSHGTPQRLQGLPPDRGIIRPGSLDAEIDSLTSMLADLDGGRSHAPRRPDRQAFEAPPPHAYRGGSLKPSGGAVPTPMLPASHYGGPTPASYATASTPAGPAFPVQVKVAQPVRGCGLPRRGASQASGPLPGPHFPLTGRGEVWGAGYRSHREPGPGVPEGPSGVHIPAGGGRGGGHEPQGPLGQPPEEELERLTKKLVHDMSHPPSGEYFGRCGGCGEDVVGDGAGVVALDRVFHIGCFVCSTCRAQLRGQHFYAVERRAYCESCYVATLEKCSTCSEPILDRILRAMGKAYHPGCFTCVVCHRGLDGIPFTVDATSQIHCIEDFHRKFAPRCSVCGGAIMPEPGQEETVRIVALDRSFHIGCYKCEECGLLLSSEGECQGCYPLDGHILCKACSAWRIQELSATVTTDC

[5] = target: T3, TRIP6, endogenous in mouse embryonic fibroblasts (mouse (endogenous in LPA1/2 DKO MEFs)); test: condition: only with knockdown of TRAF6 (TRAF6 shRNA); co-IP; as a15, in MEFs with TRAF6 shRNA
FLAG-TRAF6 [6] = target: T4, FLAG-TRAF6 (UniProt P70196); test: co-IP; FLAG-TRAF6 immunoprecipitated from HEK293T without or with co-expressed TRIP6 as competitor (HA-TRIP6; EGFP-TRIP6 or its deletion mutants); starved 6 h, without or with LPA; immunoblot for endogenous A20, CYLD
T4 sequence: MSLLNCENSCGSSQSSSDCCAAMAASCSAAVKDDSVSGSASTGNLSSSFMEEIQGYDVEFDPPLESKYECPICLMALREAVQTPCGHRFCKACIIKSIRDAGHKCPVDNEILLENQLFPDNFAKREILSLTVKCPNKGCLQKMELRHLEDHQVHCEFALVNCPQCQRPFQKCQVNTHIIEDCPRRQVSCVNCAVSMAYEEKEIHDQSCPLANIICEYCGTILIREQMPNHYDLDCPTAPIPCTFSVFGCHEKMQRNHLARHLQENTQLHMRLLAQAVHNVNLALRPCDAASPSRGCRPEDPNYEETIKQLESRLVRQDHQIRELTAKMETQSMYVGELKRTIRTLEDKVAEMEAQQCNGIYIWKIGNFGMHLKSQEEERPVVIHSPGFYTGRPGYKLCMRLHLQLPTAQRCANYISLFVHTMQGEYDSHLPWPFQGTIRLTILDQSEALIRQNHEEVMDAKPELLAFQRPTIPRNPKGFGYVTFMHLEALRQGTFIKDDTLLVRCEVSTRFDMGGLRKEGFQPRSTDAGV

GST-TRAF6 = target: T5, GST-TRAF6 (UniProt P70196); test: pull-down; purified recombinant TRIP6 incubated with GST, GST-TRAF6 or GST-CT, 4 °C, 3 h; anti-TRIP6 immunoblot; both purified
T5 sequence: T4 sequence

[7] = target: T6, purified recombinant TRAF6 (UniProt P70196); test: pull-down; FLAG-A20 immunoprecipitated on anti-FLAG M2 agarose from LPA-treated HEK293T (RIPA buffer); beads incubated with 0.1 μg purified recombinant TRAF6 without or with 0.1 μg purified recombinant TRIP6, 4 °C, 3 h; washed four times; immunoblot; both purified
T6 sequence: T4 sequence

[8] = target: T7, FLAG-TRIP6 mutant containing three LIM domains (residues 220–476) (UniProt Q15654); test: co-IP; FLAG-TRIP6 constructs co-expressed with EGFP-tagged TRAF6 domains in HEK293T; anti-FLAG M2 immunoprecipitation; anti-GFP immunoblot
T7 sequence: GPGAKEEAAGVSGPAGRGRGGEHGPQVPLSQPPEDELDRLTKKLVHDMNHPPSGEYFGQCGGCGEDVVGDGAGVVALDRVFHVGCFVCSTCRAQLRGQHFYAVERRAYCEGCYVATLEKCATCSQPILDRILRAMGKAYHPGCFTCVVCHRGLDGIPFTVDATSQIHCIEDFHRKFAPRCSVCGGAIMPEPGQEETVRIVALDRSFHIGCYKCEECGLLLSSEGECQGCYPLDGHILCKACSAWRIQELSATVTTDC

[9] = target: T8, FLAG-TRIP6 mutant containing the pre-LIM region (residues 1–278) (UniProt Q15654); test: as above
T8 sequence: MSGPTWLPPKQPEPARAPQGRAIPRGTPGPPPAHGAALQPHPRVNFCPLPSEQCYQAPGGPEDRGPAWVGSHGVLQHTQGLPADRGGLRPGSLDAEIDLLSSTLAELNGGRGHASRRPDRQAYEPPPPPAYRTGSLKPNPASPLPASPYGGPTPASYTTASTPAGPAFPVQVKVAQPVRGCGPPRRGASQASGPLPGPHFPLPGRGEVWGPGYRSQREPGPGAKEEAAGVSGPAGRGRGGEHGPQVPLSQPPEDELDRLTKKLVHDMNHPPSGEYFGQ

FLAG-TRAF6 [10] = target: T4, FLAG-TRAF6; test: co-IP; FLAG-TRAF6 immunoprecipitated with anti-FLAG M2 agarose from HEK293T; starved 6 h, LPA for the indicated times; immunoblot for endogenous CYLD, A20, TRIP6

NF-κB p65, endogenous (HEK293T) (from UniProt Q04206 1-551)
binding (FLAG-TRIP6 [1]): binds | binding [2]: binds | binding (FLAG-TRIP6 [3]): no binding

NF-κB p65, endogenous in mouse embryonic fibroblasts (from UniProt Q04207 1-549)
binding [4]: binds | binding [5]: no binding

B1: HA-TRIP6 (protein, UniProt Q15654 1-476)
chain: T1 sequence
binding (FLAG-TRAF6 [6]): binds

B2: purified recombinant TRIP6 (protein, UniProt Q15654 1-476)
chain: T1 sequence
binding (GST-TRAF6): binds | binding [7]: binds

B3: EGFP fusion protein containing the RING domain (residues 1–149) of TRAF6 (domain or fragment, UniProt P70196 1-149)
chain: MSLLNCENSCGSSQSSSDCCAAMAASCSAAVKDDSVSGSASTGNLSSSFMEEIQGYDVEFDPPLESKYECPICLMALREAVQTPCGHRFCKACIIKSIRDAGHKCPVDNEILLENQLFPDNFAKREILSLTVKCPNKGCLQKMELRHLE
binding [8]: binds | binding [9]: no binding

B4: EGFP-TRIP6 (protein, UniProt Q15654 1-476)
chain: T1 sequence
binding (FLAG-TRAF6 [6]): binds

B5: EGFP-1–397 deletion mutant of TRIP6 (domain or fragment, UniProt Q15654 1-397)
chain: MSGPTWLPPKQPEPARAPQGRAIPRGTPGPPPAHGAALQPHPRVNFCPLPSEQCYQAPGGPEDRGPAWVGSHGVLQHTQGLPADRGGLRPGSLDAEIDLLSSTLAELNGGRGHASRRPDRQAYEPPPPPAYRTGSLKPNPASPLPASPYGGPTPASYTTASTPAGPAFPVQVKVAQPVRGCGPPRRGASQASGPLPGPHFPLPGRGEVWGPGYRSQREPGPGAKEEAAGVSGPAGRGRGGEHGPQVPLSQPPEDELDRLTKKLVHDMNHPPSGEYFGQCGGCGEDVVGDGAGVVALDRVFHVGCFVCSTCRAQLRGQHFYAVERRAYCEGCYVATLEKCATCSQPILDRILRAMGKAYHPGCFTCVVCHRGLDGIPFTVDATSQIHCIEDFHRKFAP
binding (FLAG-TRAF6 [6]): binds

B6: EGFP-1–350 mutant of TRIP6 (domain or fragment, UniProt Q15654 1-350)
chain: MSGPTWLPPKQPEPARAPQGRAIPRGTPGPPPAHGAALQPHPRVNFCPLPSEQCYQAPGGPEDRGPAWVGSHGVLQHTQGLPADRGGLRPGSLDAEIDLLSSTLAELNGGRGHASRRPDRQAYEPPPPPAYRTGSLKPNPASPLPASPYGGPTPASYTTASTPAGPAFPVQVKVAQPVRGCGPPRRGASQASGPLPGPHFPLPGRGEVWGPGYRSQREPGPGAKEEAAGVSGPAGRGRGGEHGPQVPLSQPPEDELDRLTKKLVHDMNHPPSGEYFGQCGGCGEDVVGDGAGVVALDRVFHVGCFVCSTCRAQLRGQHFYAVERRAYCEGCYVATLEKCATCSQPILDRI
binding (FLAG-TRAF6 [6]): binds

B7: TRIP6 (thyroid hormone receptor-interacting protein 6), endogenous (protein, UniProt Q15654 1-476)
chain: T1 sequence
binding (FLAG-TRAF6 [10]): binds

B8: EGFP fusion protein containing the zinc-finger (ZF) domains (residues 119–238) of TRAF6 (domain or fragment, UniProt P70196 119-238)
chain: PDNFAKREILSLTVKCPNKGCLQKMELRHLEDHQVHCEFALVNCPQCQRPFQKCQVNTHIIEDCPRRQVSCVNCAVSMAYEEKEIHDQSCPLANIICEYCGTILIREQMPNHYDLDCPTA
binding [8]: no binding | binding [9]: no binding
